Out of some 120,000 compounds screened, about 5,300 (4.4%) were called active. This list was built around the results that the source calls inconclusive (neither active nor inactive); the mix of calls is not that of the screen. The call rests on the fitted dose curve; in most records, active means well fitted inhibition curve with a large enough effect; inconclusive means small, poorly fitted or top-dose-only effect; inactive means no such curve, though single readings can be large or run the other way. Potencies beside an inconclusive call are fits to weak or partial responses and may not hold up.
Assay: qHTS Primary assay for Inhibitors of Plasmodium falciparum Dd2 growth in vitro; further: nearly all actives have a fitted effect of over 65% in size;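 on activity, negative = inhibition: plate controls were DMSO vehicle for no effect and reference drug for full effect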
Conditions: P. falciparum Dd2 growth, SYBR Green, 72 h; activity, negative = inhibition: at 28.9 µM (top of the series) unless noted; series mostly up to 28.9 µM
In short: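 Infected erythrocytes (Dd2, 0.3% parasitemia, 2.5% hematocrit final) are added to compound in RPMI-1640/Albumax II medium, grown 72 h at 37C in low oxygen, then lysed with saponin/Triton-X containing SYBR Green and read by fluorescence.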
In the case of `COc1ccc(CN2CCn3c(nnc3-c3ccccc3)C2)cc1`, the Potency is reported as inconclusive: 11.2 µM [inhibitor, partial curve, poor fit]. In the case of `CCOC(=O)C1=CN(CC(=O)Nc2cccc(C)c2)S(=O)(=O)N=C1C`, the “activity, negative = inhibition” value is reported as inactive: 10.7%. For `O=C1N(Cc2cccnc2)C(=O)C2(CCN(Cc3cc(F)ccc3F)CC2)N1CCc1ccccc1`, the Potency was inconclusive: 17.8 µM [inhibitor, single point]. With `CCOC(=O)C1=CN(CC(=O)Nc2ccc(C)cc2C)S(=O)(=O)N=C1C` the Potency was inconclusive: 20 µM [inhibitor, single point]. For `O=C1C(c2ccc(F)cc2)N(CCc2ccccc2)C(=O)CN1C1CCCCC1` (stereo unspecified), the Potency was inconclusive: 17.8 µM [inhibitor, single point]. With `COc1cccc(CN2CCC3(CC2)CC(Cc2nc(C)no2)CCO3)n1` (stereo unspecified) the Potency was inconclusive: 5.01 µM [inhibitor, single point]. For `O=C(C1CC1)N1CC[C@H](c2nc3ccccc3o2)C1`, the Potency was inconclusive: 8.91 µM [inhibitor, full curve, poor fit]. In the case of `Cc1noc(C)c1CC(=O)N1Cc2ccccc2OC2(CCN([S+](C)(=O)[O-])CC2)C1`, the “activity, negative = inhibition” value is reported as inactive: 3.36%. In the case of `Cc1noc(C)c1-c1cc(-c2ccc(CN(C)C)cc2)cn2cncc12`, the Potency is reported as active: 2.82 µM. In the case of `COc1ccc(-c2nc3c(c(=O)[nH]2)CCN(C(=O)Cc2c[nH]c4ccccc24)C3)cc1`, the Potency is reported as inconclusive: 7.08 µM [inhibitor, partial curve, poor fit]. With `COc1ccc(N2CCN(C(c3ccccc3)c3nnc(-c4ccccc4Cl)o3)CC2)cc1` (stereo unspecified) the Potency was inconclusive: 7.08 µM [inhibitor, partial curve, poor fit]. For `CC(C)N1C[C@@H]2OCC(=O)N(Cc3ccccc3)[C@@H]2C1`, the Potency was inconclusive: 22.4 µM [inhibitor, single point]. For `COc1cccc(CN2C(=O)OC3(CCN(Cc4ccccn4)CC3)C2(C)c2cccnc2)c1` (stereo unspecified), the Potency was inconclusive: 3.16 µM [inhibitor, single point]. With `O=C1NC2(CCN(Cc3ccsc3)CC2)Oc2ccccc21` the “activity, negative = inhibition” value was inactive: -22.7% [at 44.1 µM]. For `CCN1c2cc(C(=O)NCc3cccc(C(F)(F)F)c3)ccc2C(=O)N2CCCCCC21` (stereo unspecified), the Potency was inconclusive: 11.2 µM [inhibitor, partial curve, poor fit]. With `CC(=O)Nc1cccc(C(=O)N2CCC(n3cc(-c4nc(C5CC5)no4)nn3)C2)c1` (stereo unspecified) the Potency was inconclusive: 8.91 µM [inhibitor, partial curve]. For `CCc1ccc(-c2nc3c(c(SCc4ccc(F)cc4)n2)Cc2c(CO)cnc(C)c2O3)cc1`, the Potency was inconclusive: 12.6 µM [inhibitor, single point]. For `Cn1c(C(=O)N2CCc3c(n(CCOc4ccccc4)n(-c4ccccc4)c3=O)C2)cc2ccccc21`, the Potency was inconclusive: 8.91 µM [inhibitor, partial curve]. In the case of `CC(=O)N1CCC(N2CC[C@H](c3nc4ncccc4[nH]3)C2)CC1`, the “activity, negative = inhibition” value is reported as inactive: 46.8% [at 44.1 µM]. For `Cc1ccc(S(=O)(=O)N2CCCC(Cn3c(C)nc4cccnc43)C2)cc1Cl` (stereo unspecified), the Potency was active: 7.08 µM. In the case of `CC(NC(=O)C1CCCN(c2cnc3nccnc3c2)C1)c1cccnc1` (stereo unspecified), the “outcome” value is reported as “inactive”. With `COc1ccccc1-c1nc(C(=O)NCc2ccc(F)cc2)n2ccncc12` the Potency was inconclusive: 8.91 µM [inhibitor, partial curve, poor fit]. In the case of `COc1ccc(S(=O)(=O)NC[C@@H]2C=C(C)[C@H](CC(=O)N3CCN(c4ccccn4)CC3)C[C@H]2C(C)C)cc1`, the Potency is reported as inconclusive: 3.98 µM [inhibitor, single point]. With `Cn1cnc(C(=O)N2CCC(OC3CCN(S(C)(=O)=O)CC3)CC2)c1` the “activity, negative = inhibition” value was inactive: 44%. With `O=C(c1nc(-c2ccc(F)cc2)c2cnccn12)N1CCCC1` the Potency was active: 6.31 µM. For `Cc1cc(-c2ccc(C)c(S(=O)(=O)NCc3ccc(Cl)cc3)c2)on1`, the “outcome” value was “inactive”. For `C[C@]1(CO)[C@H]2Cc3sc(NC(=O)c4ccc(F)cc4)nc3[C@@H](CC(=O)NCc3cccnc3)[C@]2(C)CC[C@H]1O`, the Potency was inconclusive: 2.51 µM [inhibitor, partial curve, poor fit]. For `COc1cccc(NC(CNS(=O)(=O)c2ccc(C)cc2)c2ccccc2)c1` (stereo unspecified), the Potency was inconclusive: 11.2 µM [inhibitor, single point]. In the case of `COc1ccc(OC)c(-c2cc(-c3ccccc3)nc3c(C)noc23)c1`, the “outcome” value is reported as “inactive [at 44.1 µM]”. For `COC(=O)c1ccc2nc(CO[C@H]3CN(Cc4cccc(C#N)c4)C[C@H]3F)[nH]c2c1`, the “activity, negative = inhibition” value was inactive: -1.88% [at 44.1 µM]. For `CC(C)(C)c1ccc(-c2cn(C[C@H]3CC4CCN3C[C@@H]4C(=O)NC3CCCCC3)nn2)cc1` (stereo partly specified), the “activity, negative = inhibition” value was inactive: -12.1%. For `COc1ccc(C(C(=O)O)N2CCN(C(=O)c3ccco3)CC2)c(OC)n1` (stereo unspecified), the “activity, negative = inhibition” value was inactive: -24.9%. In the case of `COc1ccc(CNC(=O)CC[C@@H]2CNC(=O)[C@@H]3C[C@H](NCc4ccccc4)CN23)cc1`, the Potency is reported as inconclusive: 0.794 µM [inhibitor, full curve, poor fit]. With `COCC(=O)N1CCCN(CCc2ccccc2)c2ccccc21` the Potency was inconclusive: 11.2 µM [inhibitor, partial curve]. In the case of `Cc1ccc2oc(=O)n(CCNC(=O)Nc3ccccc3Cl)c2c1`, the “activity, negative = inhibition” value is reported as inactive: -29.6%. In the case of `CC(C)CCN1CC(Oc2ccc3c(c2)OCO3)C1`, the activity, negative = inhibition is reported as inconclusive: -67.7% [inhibitor] [at 44.1 µM]. With `CCN(C(=O)c1cnc(-c2cccs2)[nH]c1=O)C1CCS(=O)(=O)C1` (stereo unspecified) the “activity, negative = inhibition” value was inactive: 3.11%. In the case of `Cc1ccc2c(CC(=O)Nc3cc(C(F)(F)F)ccc3Cl)coc2c1C`, the Potency is reported as inconclusive: 11.2 µM [inhibitor, partial curve, poor fit]. With `O=C(C1CC1)N1CCCC(c2nc(C3CCOCC3)no2)C1` (stereo unspecified) the “activity, negative = inhibition” value was inactive: 15.1%. With `COc1cc(OC)cc(C(=O)Nc2ccc3nc(N4CCC(C)CC4)cc(C)c3c2)c1` the Potency was inconclusive: 17.8 µM [inhibitor, single point]. For `O=C(Cn1cc(C(F)(F)F)ccc1=O)N1CCC2(CCCNC2=O)C1` (stereo unspecified), the “activity, negative = inhibition” value was inactive: -10.9%. For `NC(=O)COc1ccc(C(=O)N[C@@H]2CN(Cc3ccccn3)CCC[C@H]2O)cc1`, the “activity, negative = inhibition” value was inactive: -26.5% [at 44.1 µM]. For `CCOc1ccc(CC(=O)N2CCC[C@H]2c2nc(-c3ccc(C)cc3)no2)cc1`, the Potency was inconclusive: 2 µM [inhibitor, full curve]. With `Cn1cnc2ccc(-c3cccc(C(F)(F)F)c3)nc2c1=O` the Potency was active: 4.47 µM. With `O=C(COc1ccc(Cl)cc1)N1CCN(c2ccccc2)C(=O)C1` the “activity, negative = inhibition” value was inactive: -18.7%. In the case of `O=C(Nc1ccc([C@@H](O)[C@H]2COCC(=O)N2Cc2ccc(C(F)(F)F)cc2)cc1)C1CCCCC1`, the Potency is reported as inconclusive: 7.94 µM [inhibitor, partial curve, poor fit]. In the case of `CC(C)CCN1C[C@@H]2[C@H](C1)N(Cc1ccccc1F)C(=O)C(C)(C)[S+]2(=O)[O-]`, the Potency is reported as inconclusive: 10 µM [inhibitor, single point]. With `CN(CC1CCOCC1)S(=O)(=O)c1ccc2c(c1)CCCC2` the Potency was inconclusive: 0.562 µM [inhibitor, partial curve, poor fit]. With `Cc1cc(C)cc(NC(=O)Cn2c(=O)n(Cc3ccc4c(c3)OCO4)c(=O)c3oc4ccccc4c32)c1` the Potency was inconclusive: 7.08 µM [inhibitor, single point]. In the case of `c1cc(-c2cnn(CCN3CCOCC3)c2)ccc1OCCN1CCCC1`, the “activity, negative = inhibition” value is reported as inactive: -0.158%. With `COc1cc(CNC(=O)c2cccc3c2CCN3C(=O)C2CC2)cc(OC)c1` the Potency was inconclusive: 17.8 µM [inhibitor, single point]. With `O=C(NCCc1ccccc1)c1noc(-c2ccc3c(c2)OCO3)n1` the “activity, negative = inhibition” value was inactive: 20.6%. In the case of `CCCc1nn(-c2cccc(F)c2)c(OC(C)=O)c1-c1ccc(NC(C)=O)cc1`, the Potency is reported as inconclusive: 1.58 µM [inhibitor, full curve]. With `NCC(=O)N1CCC(n2nccc2NC(=O)c2ccccc2)CC1` the “activity, negative = inhibition” value was inactive: 5.39%. In the case of `CCN(Cc1ccccc1)C(=O)CCC1CCN(S(=O)(=O)c2ccccc2)CC1`, the Potency is reported as inconclusive: 10 µM [inhibitor, partial curve, poor fit]. In the case of `O=C(CN1CCCCCC1)N1CC(Oc2ccc(-c3noc(-c4ccccc4)n3)cc2)C1`, the Potency is reported as inconclusive: 2.82 µM [inhibitor, single point]. In the case of `CCOc1ccccc1CNC(=O)c1noc(-c2ccc3c(c2)OCO3)n1`, the “activity, negative = inhibition” value is reported as inactive: -2.08%. For `COC(=O)c1ccc(NC(=O)CCn2ccn3nc4c(c3c2=O)CCCC4)cc1`, the Potency was inconclusive: 11.2 µM [inhibitor, single point]. In the case of `COc1ccc(-n2nc(C3CCN([S+](=O)([O-])c4ccc(C)cc4)CC3)[nH]c2=O)cc1`, the Potency is reported as inconclusive: 1.12 µM [inhibitor, partial curve, poor fit]. For `COc1ccccc1-c1cc(C(F)(F)F)nc(S(=O)(=O)CCCC(=O)Nc2ccc(F)cc2F)n1`, the Potency was active: 8.91 µM. In the case of `COc1ccc(CNC(=O)C2CCN(c3cc(C(F)(F)F)nc(C)n3)CC2)c(OC)c1`, the “activity, negative = inhibition” value is reported as inactive: -17.3%. For `O=C(Cn1c(=O)n(Cc2nc(-c3ccccc3)no2)c(=O)c2cc3c(cc21)OCO3)Nc1cccc(C(F)(F)F)c1`, the Potency was inconclusive: 17.8 µM [inhibitor, single point]. For `COc1ccc(-c2ccc(CCC(=O)O)n2-c2cc(Cl)ccc2O)cc1`, the Potency was inconclusive: 10 µM [inhibitor, partial curve, poor fit]. With `CCn1ccc(C(=O)N2CCc3nnc([C@@H]4C[C@@H](O)CN4C(C)C)n3CC2)n1` the “activity, negative = inhibition” value was inactive: 20.6%. For `O=C(NC1CCN(c2cc(-c3ccc(F)cc3)[nH]n2)C1)c1ccc2cc[nH]c2c1` (stereo unspecified), the Potency was inconclusive: 3.16 µM [inhibitor, partial curve]. In the case of `CC(=O)c1cccc(Nc2ccc3cc(S(=O)(=O)N4CCCC4)ccc3n2)c1`, the Potency is reported as inconclusive: 17.8 µM [inhibitor, single point].
Potency means the concentration at half of the fitted maximal effect; tags describe the fitted curve by direction and shape.
